For 167 variants, self-cleavage results are on record in the RNAGym collection of RNA variant scans (doi:10.7554/elife.90254).

Sequences and labels used below:
B1: OR4K15 (parent)
chain: GUUAACGGUCAUAGGCCAUGGAAACUAGGAGCACCAUUUCGCUGCCAGUGAAGAAAUGAACAAAGAAAAUCUGGGCCAGGCAGGCAUCAAAAGAAAUAGUCUUGCGCUCAACCAGAAAGUCUGUAAUCAUUUUAAGGGUA

The source gives no read counts; variants with many changes may rest on few reads.

Variants of B1 are the subject of the series. Description: self-cleavage, relative activity (ratio to wild type); higher = more cleavage; in vitro, sequencing; the parent is a self-cleaving ribozyme.
Turning to A78G A92G A98G A111G, the self-cleavage stood at 0.03.
Then U72A U102C U139C, with 0.12; and A78G A116G U130C, with 0.05.
Regarding A78C U120C A134G, the self-cleavage was 0.14.
Then A67U G104A A110G, with 0; and U72C A90G A94G U132C, with 0.25; and A78U A116G U133C, with 0.15.
Then A78G A91G U120C, with 0.06.
Then G75A A91C U133C, with 0.09; and A78C A90G U108C, with 0.01; and A78G U87A A89G A114G U122G G137U, with 0.02.
For the variant U72A A91G A92G A117G, the self-cleavage stood at 0.1.
To A69G A118G G123A belongs 1.4; to U70C A86G U87C U103C, 0.04.
To A68C A110U A111G A116G belongs 0.02.
To G80A A95G A96G belongs 0.2.
Consider A78G U108A A126U, for which the self-cleavage was 0.02.
To A82U A129G A134G belongs 0.1; to G73A A89G U127C U132C A135U, 0.17; to A68G U72A U100A, 0.05.
To U72A U108C U122A A140G belongs 0.01.
Then U72A A82U A118G, with 0.07.
As for A69G G74C U100C, the self-cleavage was 0.23.
Then U72C A90G A111U, with 0.02; and A69G C112U A135U, with 0.02.
As for U70C U87A U127C, the self-cleavage came to 0.27.
To A69C U70C U72C C76U U103G belongs 0.02; to A67G U72G A91G U130C, 0.07.
To G74A U100C U108C A111G A135C belongs 0.
Then U72A A82G A96G A140G, with 0.26; and A78G A94G U102C, with 0.26; and U70C A114U U130C, with 0.
Turning to U72C A114U U131C, the self-cleavage was found to be 0.
Then A69G G75C A125G, with 0.03; and U70C A89C U103C, with 0.21; and A67G A118G U131C, with 0.78.
Then U70C U100C U127C, with 1.95.
Then A67G U122C G138A, with 0.62.
For the variant A67G A110G U120C, the self-cleavage worked out at 0.13.
To U72A A78G C109A belongs 0.08; to A68G A96G U103C A117G U133C, 1.47; to A68G U70C A95G A111C U122C, 0.
To U70A U102A U133C A140G belongs 0.32; to A86G A89G A94G U130C, 0.69; to U70C U100C U108A, 0.01.
To A68G A82U U103C belongs 0.23; to U70C A78G U103C A111G A125G, 0.02.
As to A69U U72C A116G A118G, the self-cleavage stood at 0.1.
Then A67G G84C A110U, with 0.22; and U70C A90U A98G, with 0.48; and A68G A92G A98U U124C, with 2.03.
Then U70C A92G U102C A111C, with 0; and U72C G74U U120A, with 0.11; and A67G A116G A135G, with 0.96.
To A67G U72C A96G A114G belongs 2.46.
For the variant U70A A92G A116G U139C, the self-cleavage came to 0.17.
Then C71A A86G U139C, with 0.35; and A68G A69U A89G A95G, with 2.2.
To A82G A86G A92G C121G belongs 0.25; to A67G U102A U108A, 0.01; to U70C C107A A114U A116G U122C, 0.
Then A78U A92G A134G, with 0.32.
For U70C G80A A126G, the self-cleavage was 0.11.
To U70C U108C G138A belongs 0.
To A78C A86G U97C A114U A129G A135G belongs 0.
To A82U A86U U108C A116G belongs 0.04.
On to A78G A92G A96C, for which the self-cleavage was found to be 0.15.
Then U70A A89G A94G, with 0.65; and U72C A94G G106A, with 0.01.
To U72G A91G A114G A140G belongs 0.04.
To A68G U103C A111G belongs 0; to A78U A86G U100C A134G, 0.93; to A68G A96G U102C, 2.16.
For A78G A86C A92G C101A U131A, the self-cleavage was 0.02.
Then A67G U72A A116G A126G, with 0.1; and U70C U97C G138U, with 0.54.
To A68G A96G U132C belongs 0.81; to A68G G74U U122C, 0.17; to A68G A95G G115U, 0.31.
To A68G C81U A94G U108A A110G belongs 0.01; to C81U A95G A114U, 0.02; to A68U A117G U132C, 2.15.
With A78U C107G A116G C128A, the self-cleavage was found to be 0.03.
To A67G U72C A98G belongs 0.03; to A68G A90U A94G U132C, 0.55.
To A82U A110U A114C U139C belongs 0.01; to A68G A129G U131C, 1.42.
To G84A A86G A91G U102A A117G belongs 0.75; to U70C A92G A96U, 0.52.
In the case of A69G A91G U97C U103C U131C, the self-cleavage worked out at 0.16.
To A68G A86C A135G belongs 0.76; to U70C U100C A118U, 1.
To G74U A86G A110G A140G belongs 0.04.
Turning to A68G U102C A135G, the self-cleavage was found to be 0.67.
On to A78U U108A A111G, for which the self-cleavage worked out at 0.01.
To A67G A116G A117G belongs 1.08; to A68G A89U U100C U120C A129G, 1.42; to A68G U70C A95G A111G A126G, 0.01.
Then A69C A116G A126G, with 1.37.
With A68G U103C A116U A129U, the self-cleavage was found to be 0.01.
Then A78G C81U A96G, with 0.05; and A78U A86G U87A U108G, with 0; and A69G U87C A111G U131C, with 0.
G73A G83U A116G: the self-cleavage amounted to 0.07.
Then G84U U108C A118U, with 0; and A69G A82U A98U A118G, with 0.03; and A82C A90G A126G, with 0.1.
Then A82U A95G A140G, with 0.33.
Then A67U A98G A114G, with 0.24; and A78G A91G A110U, with 0.26; and A82U U97C A134G, with 0.04.
For A67G A94U A118G U131C, the self-cleavage worked out at 0.3.
To U70C A90U A95G A125G belongs 0.75.
U72G A111G A117G U139A: the self-cleavage came out at 0.02.
Then A86G A90C A129U, with 0.81.
To A78G A118G U132A belongs 0.09; to A78U A110U A116G, 0.03; to A67G U87C A134G, 1.25.
U70A U87A U102C: the self-cleavage amounted to 2.04.
Then A67U A95G A114G A116G, with 1.03; and A78U A98G G115U, with 0.02.
To A69G G84A U108C U127C U130A belongs 0.01.
Consider A82U A94G A110G, for which the self-cleavage came to 0.05.
To G79A A117G U122C belongs 0.19; to C85U A91G A118G A129G, 0.12.
In the case of A68U U124C U139C, the self-cleavage worked out at 0.54.
Then A82G A86G A96U A116U, with 0.05; and A82U A86C U108C, with 0.01; and A68G U87C U132C, with 0.65.
Then U70C A92G A114G A140G, with 0.04; and U70C A86U U120A A129G, with 0.37.
To G73U A90G A96U belongs 0.17; to A82G U108C U130C, 0.02.
With U72A A111G A114G, the self-cleavage was 0.01.
Regarding U72A A78U A89G, the self-cleavage is 0.12.
Turning to A78G A96G U100C U131C, the self-cleavage was determined as 0.34.
For A67G U103C U122C, the self-cleavage was 0.13.
For the variant A67G U87C A135G, the self-cleavage is 0.57.
To U72C A95G A116G U131C belongs 0.09; to C81U U87A A117U, 0.12; to A67G C85A A86U A129U, 0.46.
To U72A G83U A92G A118G U122C A125U belongs 0.04; to A69U A94G A111G U139C, 0.02.
To A78G U130C A134G belongs 0.13.
On to C71U U87A A117G A118C, for which the self-cleavage stood at 0.03.
In the case of A68G A78U G137U, the self-cleavage came to 0.43.
To A67U U102C A126G belongs 1.18; to A67G A96G A140G, 1.71; to U72A A96G U100C U108C A140G, 0.
To A82G A96G U103G U122C U131C belongs 0.03; to A69G U70G U127C U132C, 0.18; to A69G U72C A89U, 0.25.
To U72C A82G A114C U127C belongs 0.01; to A68G U87C A91G, 0.84.
As for A68G A86G A110G, the self-cleavage was determined as 0.18.
Regarding A67G U70C A125G, the self-cleavage was found to be 0.22.
To A82C A89G U120A belongs 0.09; to U70C A90G U97C, 0.47; to U72A U87C A118G A140C, 0.14.
Take A68G G106C U120A: the self-cleavage was found to be 0.02.
To A69C U100C U131C belongs 2.26; to U72A A96G G104A, 0.
Then U70C A117G A125G, with 0.43.
To C76A U100C A114U A116U belongs 0.
For the variant A67G A116G U133A, the self-cleavage stood at 0.49.
Then A78G A96G A129G, with 0.11.
For the variant A82U U87C A90U A111G, the self-cleavage turned out to be 0.02.
